Among the data in US20250214977A1, “STAT6 INHIBITORS AND USES THEREOF” (Kymera Therapeutics, Inc., priority 2024, published 2025) are IC50 values, retold here.

The experiment has as its target T1, biotinylated truncated STAT6 (123-632)-avi (Homo sapiens, UniProt P42226).
T1 sequence (P42226 123-632 limits assumed): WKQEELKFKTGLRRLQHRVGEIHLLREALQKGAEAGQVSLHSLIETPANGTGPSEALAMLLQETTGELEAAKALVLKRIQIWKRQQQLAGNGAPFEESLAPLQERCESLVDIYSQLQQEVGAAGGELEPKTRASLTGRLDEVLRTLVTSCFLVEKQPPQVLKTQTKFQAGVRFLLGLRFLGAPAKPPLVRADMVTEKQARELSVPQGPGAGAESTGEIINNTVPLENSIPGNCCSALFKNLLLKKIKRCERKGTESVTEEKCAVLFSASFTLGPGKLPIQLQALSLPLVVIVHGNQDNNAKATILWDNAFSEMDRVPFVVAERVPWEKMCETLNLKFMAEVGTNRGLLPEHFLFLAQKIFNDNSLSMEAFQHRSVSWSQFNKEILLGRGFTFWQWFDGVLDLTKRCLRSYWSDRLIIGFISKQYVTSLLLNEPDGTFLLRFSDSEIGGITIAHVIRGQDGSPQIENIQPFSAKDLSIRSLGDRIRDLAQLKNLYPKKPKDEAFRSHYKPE
Nature of the experiment: Homogenous Time-Resolved Fluorescence (HTRF) binding assay. Conditions: 0.15 nM biotinylated truncated STAT6 (123-632)-avi, 20 nM fluorescein-labeled probe, 30 minutes room temperature. (In TR-FRET formats the signal depends on donor and acceptor labels being close together.)

Structures are written as SMILES. Where only a bound is given, the exact number is not on record here.

The term IC50 denotes the concentration needed to halve the response being measured. High values mean weaker potency, low ones greater potency. Take `CC(=O)N1CCC=C(c2cc(-c3cccc4c3CN(C)C4=O)c3cc(C(=O)N(C)C)[nH]c3c2F)C1` [Example I-1508]: the IC50 is below 100 nM.
Take `CC(=O)N1CCC=C(c2cc(-c3ccc4c(c3)NC(=O)C4)c3cc(C(=O)N(C)C)[nH]c3c2F)C1` [Example I-1509]: the half-inhibitory concentration (IC50) was in the range of 100 to 1000 nM.
`CN(C)C(=O)c1cc2cc(C3=CCCN(C(=O)CCn4ccnn4)C3)cc(N3CCC(Oc4ncccn4)CC3)c2o1` [Example I-1510] gave an IC50 below 100 nM.
Regarding `CN(C)C(=O)c1cc2cc(C3=CCCN(C(=O)CCn4ccnn4)C3)cc(N3CCC(O)(c4ccc(F)cc4)CC3)c2o1` [Example I-1511], the IC50 is below 100 nM.
Compound `Nc1nc(NC(=O)c2cc3cc(C4=CCCN(C(=O)CCn5ccnn5)C4)ccc3o2)cs1` [Example I-1512] had an IC50 of 1000 to 10000 nM.
Consider `CN(C)C(=O)c1cc2cc(C3=CCCN(C(=O)CCn4ccnn4)C3)cc(N3CCC(Cc4ccccc4)CC3)c2o1` [Example I-1513], for which the IC50 lay in the range of 100 to 1000 nM.
As for `CC(C)c1ccccc1Nc1cc(C2=CCCN(C(=O)CCn3ccnn3)C2)cc2cc(C(=O)N(C)C)oc12` [Example I-1515], the IC50 was in the range of 100 to 1000 nM.
For `Cc1ccc(-c2cc(C3=CCCN(C(=O)CCn4ccnn4)C3)cc3cc(C(=O)N(C)C)oc23)nc1` [Example I-1516], the IC50 lay within 100 to 1000 nM.
For the compound `COc1cc(F)cc(Nc2cc(C3=CCCN(C(=O)CCn4ccnn4)C3)cc3cc(C(=O)N(C)C)oc23)c1` [Example I-1517], the half-inhibitory concentration (IC50) was 100 to 1000 nM.
As to `CN(C)C(=O)c1cc2cc(C3=CCCN(C(=O)CCn4ccnn4)C3)cc(Nc3cccc(OC(F)F)c3)c2o1` [Example I-1518], the IC50 lay within 100 to 1000 nM.
`COc1ccccc1-c1cc(C2=CCCN(C(=O)CCn3ccnn3)C2)c(F)c2[nH]c(C(=O)N3CCCN(C(=O)c4ccco4)CC3)cc12` [Example I-1520] registered an IC50 below 100 nM.
For the compound `COc1ccccc1-c1cc(C2=CCCN(C(=O)CCn3ccnn3)C2)c(F)c2[nH]c(C(=O)N3CCN(C(N)=O)CC3)cc12` [Example I-1521], the IC50 is below 100 nM.
The same measure for `COc1ccccc1-c1cc(C2=CCCN(C(=O)CCn3ccnn3)C2)c(F)c2cc(C#N)oc12` [Example I-1526]: 1000 to 10000 nM; for `COc1cc(N2CCNCC2)ccc1-c1cc(C2=CCCN(C(=O)CCn3ccnn3)C2)c(F)c2[nH]c(C(=O)N(C)C)cc12` [Example I-1527]: below 100 nM; for `CN(C)C(=O)c1cc2c(-c3ccc(N4CCNCC4)cc3)cc(C3CCCN(C(=O)CCn4ccnn4)C3)c(F)c2[nH]1` (stereo not drawn) [Example I-1528]: below 100 nM.
On to `COc1ccccc1-c1cc(C2=CCCN(C(=O)CCn3ccnn3)C2)c(F)c2[nH]c(C(=O)N3CCC(c4ccccc4)C3)cc12` (stereo not drawn) [Example I-1530], for which the IC50 is below 100 nM.
In turn, `COc1ccccc1-c1cc(C2=CCCN(C(=O)CCn3ccnn3)C2)c(F)c2[nH]c(C(=O)N3CCN(c4ccc5ccccc5n4)CC3)cc12` [Example I-1532] came in with an IC50 of 100 to 1000 nM.
As for `COc1ccccc1-c1cc(C2=CCCN(C(=O)CCn3ccnn3)C2)c(F)c2[nH]c(C(=O)N3CCC[C@H]3c3cccnc3)cc12` [Example I-1534], the figure is below 100 nM; as for `COc1ccccc1-c1cc(C2=CCCN(C(=O)CCn3ccnn3)C2)c(F)c2[nH]c(C(=O)N3CC(NC(C)=O)C3)cc12` [Example I-1535], 100 to 1000 nM.
`COc1ccccc1-c1cc(C2=CCCN(C(=O)CCn3ccnn3)C2)c(F)c2[nH]c(C(=O)N3CCN(c4ccc(Cl)cn4)CC3)cc12` [Example I-1536] registered an IC50 below 100 nM.
Regarding `COc1ccccc1-c1cc(C2=CCCN(C(=O)CCn3ccnn3)C2)c(F)c2[nH]c(C(=O)N3CCC[C@H]3c3cccc(Br)c3)cc12` [Example I-1537], the IC50 was 1000 to 10000 nM.
For the compound `COc1ccccc1-c1cc(C2=CCCN(C(=O)CCn3ccnn3)C2)c(F)c2[nH]c(C(=O)N3CCN(c4nc5ccccc5o4)CC3)cc12` [Example I-1538], the concentration for half-maximal inhibition (IC50) was below 100 nM.
Take `COc1ccccc1-c1cc(C2=CCCN(C(=O)CCn3ccnn3)C2)c(F)c2[nH]c(C(=O)N3CCC(c4nnc(-c5ccccc5)o4)CC3)cc12` [Example I-1539]: the IC50 is 100 to 1000 nM.
`COc1ccccc1-c1cc(C2=CCCN(C(=O)CCn3ccnn3)C2)c(F)c2[nH]c(C(=O)N3CCC(Oc4ccncc4)CC3)cc12` [Example I-1540] showed an IC50 below 100 nM.
Compound `COc1ccccc1-c1cc(C2=CCCN(C(=O)CCn3ccnn3)C2)c(F)c2[nH]c(C(=O)N3CCC(C)(C)C3)cc12` [Example I-1541] showed an IC50 of 1000 to 10000 nM.
`COc1ccccc1-c1cc(C2=CCCN(C(=O)CCn3ccnn3)C2)c(F)c2[nH]c(C(=O)N3CCC[C@@H]3c3cccc(F)c3)cc12` [Example I-1542]: the IC50 was in the range of 1000 to 10000 nM.
As for `COc1ccccc1-c1cc(C2=CCCN(C(=O)CCn3ccnn3)C2)c(F)c2[nH]c(C(=O)N3CCN(c4ccc(C(F)(F)F)c(Cl)n4)CC3)cc12` [Example I-1543], the figure is 1000 to 10000 nM; as for `COc1ccccc1-c1cc(C2=CCCN(C(=O)CCn3ccnn3)C2)c(F)c2[nH]c(C(=O)N3CC[C@@H](C(N)=O)C3)cc12` [Example I-1544], below 100 nM.
In the case of `COc1ccccc1-c1cc(C2=CCCN(C(=O)CCn3ccnn3)C2)c(F)c2[nH]c(C(=O)N3CCCC(C#N)C3)cc12` (stereo not drawn) [Example I-1546], the IC50 is below 100 nM.
`COc1ccccc1-c1cc(C2=CCCN(C(=O)CCn3ccnn3)C2)c(F)c2[nH]c(C(=O)N3CC(CO)C3)cc12` [Example I-1547] yielded an IC50 of 100 to 1000 nM.
The compound `COc1ccccc1-c1cc(C2=CCCN(C(=O)CCn3ccnn3)C2)c(F)c2[nH]c(C(=O)N3CCSCC3)cc12` [Example I-1548] came in with an IC50 below 100 nM.
`COc1ccccc1-c1cc(C2=CCCN(C(=O)CCn3ccnn3)C2)c(F)c2[nH]c(C(=O)N3CCCC3c3ccc(C)cc3)cc12` (stereo not drawn) [Example I-1549] yielded an IC50 of 1000 to 10000 nM.
As to `COc1ccccc1-c1cc(C2=CCCN(C(=O)CCn3ccnn3)C2)c(F)c2[nH]c(C(=O)N3CC(C(F)F)C3)cc12` [Example I-1550], the IC50 is 100 to 1000 nM.
In the case of `COc1ccccc1-c1cc(C2=CCCN(C(=O)CCn3ccnn3)C2)c(F)c2[nH]c(C(=O)N3CCN(C(=O)c4ccccc4)CC3)cc12` [Example I-1551], the IC50 is below 100 nM.
Consider `COc1ccccc1-c1cc(C2=CCCN(C(=O)CCn3ccnn3)C2)c(F)c2[nH]c(C(=O)N3CCc4nc(C)[nH]c4C3)cc12` [Example I-1552], for which the IC50 was below 100 nM.
The same measure for `CN(C)C(=O)c1cc2cc(C3=CCCN(C(=O)CCn4ccnn4)C3)cc(/C=C/c3ccc(Cl)cc3)c2o1` [Example I-1553]: 100 to 1000 nM; for `O=C(CCn1ccnn1)N1CCC=C(c2ccc3oc(C(=O)N4CC(O)C4)cc3c2)C1` [Example I-1554]: 1000 to 10000 nM; for `CN(C(=O)c1cc2cc(C3=CCCN(C(=O)CCn4ccnn4)C3)ccc2o1)c1ccccn1` [Example I-1555]: 100 to 1000 nM.
Take `COc1ccccc1-c1cc(C2=CCCN(C(=O)CCn3ccnn3)C2)c(F)c2cc(C(C)(C)O)oc12` [Example I-1556]: the IC50 fell in the range of 1000 to 10000 nM.
Compound `COc1ccccc1-c1cc(C2=CCCN(c3ccccn3)C2)c(F)c2[nH]c(C(=O)N(C)C)cc12` [Example I-1557] registered an IC50 of 1000 to 10000 nM.
On to `COc1ccccc1-c1cc(C2=CCCN(C(=O)CCn3ccnn3)C2)c(F)c2[nH]c(C(=O)N(C)CC#CCCO)cc12` [Example I-1558], for which the half-maximal inhibitory concentration (IC50) was below 100 nM.
`CC(=O)N1CCC=C(c2cc(-c3ccccc3OC(F)(F)F)c3cc(C(=O)N(C)C)[nH]c3c2F)C1` [Example I-1559] had an IC50 of 100 to 1000 nM.
Regarding `COc1ccccc1-c1cc(C2=CCCN(C(=O)CCn3ccnn3)C2)c(F)c2[nH]c(C(=O)N3CCC(c4ccncc4)C3)cc12` (stereo not drawn) [Example I-1560], the IC50 was below 100 nM.
As for `CC(=O)N1CCC=C(c2cc(-c3nc4ccccc4s3)c3cc(C(=O)N(C)C)[nH]c3c2F)C1` [Example I-1561], the figure is 100 to 1000 nM; as for `CC(=O)N1CCC=C(c2cc(-c3nc4ccccc4[nH]3)c3cc(C(=O)N(C)C)[nH]c3c2F)C1` [Example I-1562], 100 to 1000 nM; as for `CNc1ccccc1-c1cc(C2=CCCN(C(C)=O)C2)c(F)c2[nH]c(C(=O)N(C)C)cc12` [Example I-1563], below 100 nM.
The compound `CC(=O)N1CCC=C(c2cc(-c3ccccc3C(F)(F)F)c3cc(C(=O)N(C)C)[nH]c3c2F)C1` [Example I-1564] yielded an IC50 of 100 to 1000 nM.
`CC(=O)N1CCC=C(c2cc(-c3ccccc3C#N)c3cc(C(=O)N(C)C)[nH]c3c2F)C1` [Example I-1565] returned an IC50 below 100 nM.
The compound `COc1ccccc1-c1cc(C2=CCCN(C(=O)CCn3ccnn3)C2)c(F)c2[nH]c(C(=O)N3CCCC(O)C3C)cc12` (stereo not drawn) [Example I-1566] returned an IC50 of 100 to 1000 nM.
Compound `COc1ccccc1-c1cc(C2=CCCN(C(=O)CCn3ccnn3)C2)c(F)c2[nH]c(C(=O)N3CNC(=O)NC3)cc12` [Example I-1569] came in with an IC50 below 100 nM.
The compound `COc1ccccc1-c1cc(C2=CCCN(C(=O)CCn3ccnn3)C2)c(F)c2[nH]c(C(=O)N(CCO)CCc3ccccc3)cc12` [Example I-1570] returned a 50% inhibitory concentration (IC50) of 1000 to 10000 nM.
`CN(C)C(=O)c1cc2cc(C3=CCCN(C(=O)CCn4ccnn4)C3)cc(Oc3ccccc3)c2o1` [Example I-1571] displayed an IC50 below 100 nM.
Take `COc1c[nH]c(=O)cc1-c1cc(C2=CCCN(C(=O)CCn3ccnn3)C2)c(F)c2[nH]c(C(=O)N(C)C)cc12` [Example I-1574]: the IC50 is below 100 nM.
The same measure for `COc1ccccc1-c1cc(C(=O)N(C)C)cc2cc(C3=CCCN(C(=O)CCn4ccnn4)C3)[nH]c12` [Example I-1576]: below 100 nM.
